Assay results as given in PubChem BioAssay AID1468 (National Center for Advancing Translational Sciences (NCATS), 2008).
Screen size: about 280,000 compounds; about 1,100 (0.39%) were called active. The inconclusive results got no clear call from the source; some entries with a clear call stand among them for comparison. The call rests on the fitted dose curve; in most records, active means well fitted inhibition curve with a large enough effect; inconclusive means small, poorly fitted or top-dose-only effect, or effect the other way; inactive means flat fitted curve, though single readings scatter. No potency is given beside an inconclusive call; the fits are too rough.

What follows are molecules tested against Microtubule-associated protein tau (Homo sapiens) (UniProt P10636) (assay: qHTS for Inhibitors of Tau Fibril Formation, Fluorescence Polarization). Conditions: K18 P301L tau heparin fibrillization, Alexa594 FP, 6 h; series mostly up to 57.7 µM.
In short: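 K18 P301L tau (15 uM unlabeled/0.24 uM Alexa 594-labeled, final) + compound + heparin 20 uM final; 100 mM NaOAc pH 7; 6 hr 37 C; ThT 30 uM final added, 1 hr RT; FP ex 555/em 632 nm.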
Further: nearly all actives have a fitted effect of over 55% in size.
On the % scale 0 is the no-effect control and ±100 the full control effect; potency means the concentration at half of the fitted maximal effect; tags describe the fitted curve by direction and shape.

UniProt P10636, sequence (P10636 whole entry, looked up): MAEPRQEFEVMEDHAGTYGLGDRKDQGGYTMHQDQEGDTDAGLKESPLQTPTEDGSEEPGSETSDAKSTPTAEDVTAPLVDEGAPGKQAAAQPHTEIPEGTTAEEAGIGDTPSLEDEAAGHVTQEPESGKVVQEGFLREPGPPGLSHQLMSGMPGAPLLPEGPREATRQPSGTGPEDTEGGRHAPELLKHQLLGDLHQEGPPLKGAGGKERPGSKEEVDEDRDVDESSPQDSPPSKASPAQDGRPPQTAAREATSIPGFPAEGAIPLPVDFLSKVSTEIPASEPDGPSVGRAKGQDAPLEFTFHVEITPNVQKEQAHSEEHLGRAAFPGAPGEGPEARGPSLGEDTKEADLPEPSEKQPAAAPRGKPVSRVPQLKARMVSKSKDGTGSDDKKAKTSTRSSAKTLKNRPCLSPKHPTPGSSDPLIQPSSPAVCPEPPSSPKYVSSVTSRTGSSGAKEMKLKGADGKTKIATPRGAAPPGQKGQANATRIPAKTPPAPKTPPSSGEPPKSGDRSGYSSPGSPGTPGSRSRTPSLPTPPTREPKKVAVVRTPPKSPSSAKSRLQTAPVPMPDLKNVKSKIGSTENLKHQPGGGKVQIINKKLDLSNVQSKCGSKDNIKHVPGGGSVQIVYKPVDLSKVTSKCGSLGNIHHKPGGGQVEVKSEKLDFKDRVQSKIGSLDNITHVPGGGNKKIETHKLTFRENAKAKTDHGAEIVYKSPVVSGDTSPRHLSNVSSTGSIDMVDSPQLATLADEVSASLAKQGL

Structure (SMILES) | Potency | activity, negative = inhibition
Cn1c(-c2sccc2OCc2ccc(Cl)cc2Cl)n[nH]c1=S | inactive | –
Nc1sc2c(c1C(=O)NCCc1ccccc1)CCC2 | inconclusive [inhibitor, partial curve] | –
Cc1ccc(OCC(=O)NCC(c2ccc(Cl)cc2)N2CCCCC2)cc1 (stereo not given) | inactive | –
O=C(c1ccco1)N1CCN(c2ncnc3scc(-c4ccccc4)c23)CC1 | inactive | –
CSc1ccc(CCNC(=O)CCc2c(C)nc3c(c(C)nn3-c3ccc(C)c(C)c3)c2C)cc1 | inactive | –
CCOc1ccccc1NC(=O)N1CCN(C)c2ncccc21 | inactive | –
Cc1ccc(NC(=O)CSc2n[nH]c(-c3ccc(F)cc3)n2)cc1F | inconclusive [inhibitor, partial curve, poor fit] | –
CC(C)(C)c1ccc(OCC(=O)OCCNC(=O)c2cccnc2)cc1 | inconclusive [inhibitor, single point] | –
CSc1cccc(NC(=O)CC(c2cccs2)N2Cc3ccccc3C2=O)c1 (stereo not given) | inconclusive [inhibitor, single point] | –
CC(=O)OC[C@H]1O[C@@H](O/N=C(\C)CCC(=O)OC[C@@H]2O[C@H](C#Cc3ccccc3)C=C[C@@H]2Oc2ccc(C)cc2)[C@H](OC(C)=O)[C@@H](OC(C)=O)[C@H]1OC(C)=O | – | inactive: 8.44% [at 11.6 µM]
CCCNC(=O)Nc1cccc(NC(C)=O)c1 | inconclusive [inhibitor, partial curve] | –
Cc1ccc(Nc2nc(N)c([N+](=O)[O-])c(NCc3ccco3)n2)cc1C | inconclusive [inhibitor, partial curve] | –
O=C(Nc1cccc(Cl)c1Cl)c1cc2nc(-c3ccc(Cl)cc3)cc(C(F)(F)F)n2n1 | inactive | –
COc1ccc(OC)c(C(=O)c2c(C)oc3cc([N+](=O)[O-])c(O)c([N+](=O)[O-])c23)c1 | inactive | –
O=C(NCCc1nc2ccccc2n1Cc1ccccc1)c1ccco1 | inactive | –
COc1ccc(-c2cc(-c3cc(F)ccc3O)[nH]n2)cc1OC | inconclusive [inhibitor, full curve, poor fit] | –
CCN1CCCC1CN(Cc1cc2ccc(C)cc2[nH]c1=O)C(=S)Nc1ccc(OC)cc1OC (stereo not given) | inactive | –
C=CCN(CC=C)C(=S)Nc1ccc2nsnc2c1 | inconclusive [inhibitor, partial curve, poor fit] | –
Cc1ccc(N(CC(=O)N/N=C/c2cccc(Br)c2)S(C)(=O)=O)cc1 | inconclusive [inhibitor, single point] | –
CCN(CC)CCNC(=O)c1cc(-c2ccc(Br)s2)nc2ccccc12 | inconclusive [inhibitor, partial curve] | –
Cc1[nH]n(-c2ccccc2)c(=O)c1N=Nc1ccccc1 | inactive | –
Cc1nc(-n2nc(C)c(Cc3ccc4c(c3)OCO4)c2C)sc1C(=O)Nc1cccc(Cl)c1 | inconclusive [inhibitor, partial curve, poor fit] | –

Structure (SMILES) | Potency | activity, negative = inhibition
COc1ccc(-c2nn(-c3ccccc3)cc2/C=N/NC(=O)c2cccc(S(=O)(=O)Nc3ccccc3OC)c2)cc1 | inconclusive [inhibitor, full curve] | –
c1ccc(-c2nc3ccccn3c2NCc2ccc3c(c2)OCO3)cc1 | inactive | –
Cc1ccccc1OCC(O)Cn1c(SC(C)C)nc2c1c(=O)[nH]c(=O)n2C (stereo not given) | inactive | –
O=C(CSCc1ccco1)Nc1cc(C(F)(F)F)ccc1N1CCOCC1 | inconclusive [inhibitor, single point] | –
Cc1ccc2oc(-c3cccc(NC(=O)c4ccc(Br)o4)c3)nc2c1 | inconclusive [inhibitor, partial curve, poor fit] | –
Cc1ccc(CNC(=O)c2sc3nc(C)cc(C)c3c2-n2cccc2)cc1 | inconclusive [inhibitor, single point] | –
Cc1cc(C)c2nc3s/c(=C/c4ccc5c(c4)n(C)c(=O)n5C)c(=O)n3c2c1 | inactive | –
CCOC(=O)C1CCCN(C(=O)CC(c2ccccc2)c2ccccc2)C1 (stereo not given) | inactive | –
COc1ccc(-c2noc(CCCOc3ccccc3)n2)cc1OC | inconclusive [inhibitor, single point] | –
O=C1CCCC(O)=C1N=Nc1ccc(Cl)c(Cl)c1 | inactive | –
CCOC(=O)c1ccc(NC(=O)CSc2nc3ncc(Br)c(C)c3[nH]2)cc1 | inconclusive [inhibitor, partial curve] | –
Cn1nc(-c2ccc(OCC(=O)Nc3cccc(C(F)(F)F)c3)cc2)c2ccccc2c1=O | inconclusive [inhibitor, partial curve] | –
CCCOc1ccc(-c2nc(C#N)c(NCC3CCCO3)o2)cc1 (stereo not given) | inconclusive [activator, partial curve] | –
Cc1ccc(C(=O)Nc2ccc(F)cc2)cc1S(=O)(=O)N1CCCCCC1 | inconclusive [inhibitor, partial curve] | –
COc1ccc(/C=N/NC(=O)CN(CCc2ccccc2)S(=O)(=O)c2ccc(NC(C)=O)cc2)cc1OC | inconclusive [inhibitor, partial curve] | –
Oc1[nH]c2ccc(Br)cc2c1N=NC(=S)Nc1ccc(F)cc1 | – | inactive: -2.61% [at 0.0958 µM]
CC(C)c1ccc2oc(-c3ccc(Cl)c(NC(=O)c4cccs4)c3)nc2c1 | inconclusive [inhibitor, single point] | –
C/C(=N\Nc1ccc(C(=O)O)cc1)c1ccc(Br)cc1 | inconclusive [activator, full curve, poor fit] | –
O=C(Nc1c(C(=O)c2ccccc2)oc2ccccc12)c1cc(-c2ccccc2O)n[nH]1 | inconclusive [inhibitor, partial curve] | –
CC(=O)OC1CCC2(C)C3CCC4(C)C(CC5CCCCC54C(C)=O)C3CC(=O)[C@@]2(O)C1 (stereo not given in full) | inactive | –
Cc1ccc(C)c(NC(=O)CSc2nnc(-c3n[nH]c4ccccc34)o2)c1 | inconclusive [inhibitor, partial curve, poor fit] | –
CCOCCCNC(=O)c1ccc2c(c1)NC(=O)C(CS(=O)(=O)Cc1ccc(F)cc1Cl)N2 (stereo not given) | inconclusive [inhibitor, single point] | –

Structure (SMILES) | Potency | activity, negative = inhibition
Cc1ccc(S(=O)(=O)NCc2c(-c3ccccc3)c3cc(Cl)ccc3[nH]c2=O)cc1 | inconclusive [inhibitor, partial curve] | –
CCC(C)CCCCC(=O)NC(CCN)C(=O)NC(C(=O)NC(CCN)C(=O)NC1CCNC(=O)C(C(C)O)NC(=O)C(CCN)NC(=O)C(CCN)NC(=O)C(CC(C)C)NC(=O)C(Cc2ccccc2)NC(=O)C(CCN)NC1=O)C(C)O (stereo not given) | inactive | –
O=C(NC1CCCCCC1)C1CCN(C(=O)N2CCOc3ccc(Cl)cc32)CC1 | inconclusive [inhibitor, single point] | –
CCc1c(C)nc(SCC(N)=O)c(C#N)c1C | inconclusive [inhibitor, single point] | –
CCOc1cccc(NC(=O)C2CC(=O)N(C)C(=Nc3cccc(OC)c3)S2)c1 (stereo not given) | inconclusive [inhibitor, partial curve, poor fit] | –
O=C(/C=C/c1ccc([N+](=O)[O-])cc1)NCCSCc1ccco1 | inconclusive [activator, full curve, poor fit] | –
COc1cccc(-c2nc(NCCc3c[nH]c4ccc(OC)cc34)c3ccccc3n2)c1 | inconclusive [activator, single point] | –
O=C1C2CC=CCC2C(=O)N1c1ccc(NCCc2ccc(O)cc2)c([N+](=O)[O-])c1 (stereo not given) | inconclusive [inhibitor, single point] | –
CC(C)[C@H]1COC(c2cc(Cl)cc(Cl)c2)=N1 | inactive | –
Cc1cccc2[nH]c(-c3ccc(NC(=O)c4ccco4)cc3)nc12 | inconclusive [activator, single point] | –
Cc1ccc(NC(N)=S)cc1 | inactive | –
O=C(CSc1nc2ccc([N+](=O)[O-])cc2[nH]1)c1ccc2ccccc2c1 | inconclusive [inhibitor, single point] | –
COc1ccc(C(=O)N2CC(=O)Nc3ccc(C)cc3C2c2ccccc2)c(OC)c1 (stereo not given) | inconclusive [inhibitor, partial curve, poor fit] | –
COc1ccc(/C=C\c2onc(C)c2S(=O)(=O)N2CCC(C(=O)Nc3ccc(Cl)cc3)CC2)cc1 | inconclusive [inhibitor, partial curve] | –
CCCCC/C=C\C/C=C\C/C=C\CCCCCCC(=O)NCCc1ccc(O)c(O)c1 | inactive | –
CCCCCCCCCCCCCCCC(=O)OCC(O)C1OC(=O)C(O)=C1O (stereo not given) | inactive | –
Cc1ccc(NC(=O)c2ccc3snnc3c2)cc1Cl | inconclusive [inhibitor, partial curve] | –
COc1ccc(Oc2cn[nH]c2-c2ccc(O)cc2O)cc1 | inconclusive [activator, partial curve] | –
CCCCN(CCCC)Cc1ccc(C(=O)NNC(=O)Nc2ccc(Cl)cc2)o1 | inconclusive [inhibitor, single point] | –
Cc1ccc(-c2cc(C(=O)N/N=C/C=C/c3ccccc3)n[nH]2)s1 | inconclusive [inhibitor, partial curve] | –
Cc1ccc(C)c(NC(=O)c2cccc(Oc3ccc([N+](=O)[O-])cc3Cl)c2)c1 | inconclusive [activator, full curve, poor fit] | –
